Assay results as given in a compilation of properties of binary mixtures (doi:10.1021/acs.jpcb.5b11900).
The densities may have been worked out from excess volumes.

Assay: xn = mol fraction of the nth substance listed
Settings: 101 kPa

CC[NH+](CC)CC.O=[N+]([O-])[O-] + CC[NH3+].O=[N+]([O-])[O-]
Settings | mass density [kg/m3]
293.15 K, x1 = 0.0499 | 1200.8
293.15 K, x1 = 0.0999 | 1188.1
293.15 K, x1 = 0.3995 | 1135.1
293.15 K, x1 = 0.4472 | 1128.4
293.15 K, x1 = 0.5003 | 1122.4
293.15 K, x1 = 0.5485 | 1116.8
298.15 K, x1 = 0.0499 | 1197.7
298.15 K, x1 = 0.0999 | 1185
298.15 K, x1 = 0.1997 | 1165
298.15 K, x1 = 0.25 | 1155.3
298.15 K, x1 = 0.2993 | 1142.2
298.15 K, x1 = 0.3475 | 1139.5
298.15 K, x1 = 0.3995 | 1132.1
298.15 K, x1 = 0.4472 | 1125.3
298.15 K, x1 = 0.5003 | 1119.4
298.15 K, x1 = 0.5485 | 1113.7
303.15 K, x1 = 0.0499 | 1194.6
303.15 K, x1 = 0.0999 | 1182
303.15 K, x1 = 0.149 | 1169.4
303.15 K, x1 = 0.1997 | 1161.9
303.15 K, x1 = 0.25 | 1152.3
303.15 K, x1 = 0.2993 | 1139.2
303.15 K, x1 = 0.3995 | 1129.1
303.15 K, x1 = 0.4472 | 1122.3
303.15 K, x1 = 0.5003 | 1116.4
303.15 K, x1 = 0.5485 | 1110.7
308.15 K, x1 = 0.0499 | 1191.6
308.15 K, x1 = 0.0999 | 1178.9
308.15 K, x1 = 0.149 | 1166.4
308.15 K, x1 = 0.1997 | 1158.9
308.15 K, x1 = 0.25 | 1149.3
308.15 K, x1 = 0.2993 | 1136.2
308.15 K, x1 = 0.3475 | 1133.6
308.15 K, x1 = 0.3995 | 1126.1
308.15 K, x1 = 0.4472 | 1119.4
308.15 K, x1 = 0.5003 | 1113.4
308.15 K, x1 = 0.5485 | 1107.7
313.15 K, x1 = 0.0499 | 1188.6
313.15 K, x1 = 0.0999 | 1176
313.15 K, x1 = 0.149 | 1163.4
313.15 K, x1 = 0.1997 | 1156
313.15 K, x1 = 0.25 | 1146.4
313.15 K, x1 = 0.2993 | 1133.3
313.15 K, x1 = 0.3475 | 1130.6
313.15 K, x1 = 0.5003 | 1110.5
313.15 K, x1 = 0.5485 | 1104.8
318.15 K, x1 = 0.0499 | 1185.6
318.15 K, x1 = 0.0999 | 1173
318.15 K, x1 = 0.149 | 1160.4
318.15 K, x1 = 0.1997 | 1153
318.15 K, x1 = 0.25 | 1143.4
318.15 K, x1 = 0.2993 | 1130.4
318.15 K, x1 = 0.3475 | 1127.7
318.15 K, x1 = 0.3995 | 1120.2
318.15 K, x1 = 0.4472 | 1113.5
318.15 K, x1 = 0.5003 | 1107.5
318.15 K, x1 = 0.5485 | 1101.8
323.15 K, x1 = 0.0499 | 1182.6
323.15 K, x1 = 0.149 | 1157.5
323.15 K, x1 = 0.1997 | 1150.1
323.15 K, x1 = 0.25 | 1140.5
323.15 K, x1 = 0.2993 | 1127.5
323.15 K, x1 = 0.3475 | 1124.8
323.15 K, x1 = 0.4472 | 1110.6
323.15 K, x1 = 0.5485 | 1098.9
328.15 K, x1 = 0.0499 | 1179.7
328.15 K, x1 = 0.0999 | 1167.1
328.15 K, x1 = 0.1997 | 1147.2
328.15 K, x1 = 0.25 | 1137.7
328.15 K, x1 = 0.2993 | 1124.6
328.15 K, x1 = 0.3475 | 1122
328.15 K, x1 = 0.4472 | 1107.7
333.15 K, x1 = 0.0499 | 1176.8
333.15 K, x1 = 0.0999 | 1164.3
333.15 K, x1 = 0.149 | 1151.7
333.15 K, x1 = 0.25 | 1134.8
333.15 K, x1 = 0.2993 | 1121.8
333.15 K, x1 = 0.3475 | 1119.1
333.15 K, x1 = 0.3995 | 1111.6
333.15 K, x1 = 0.4472 | 1104.9
338.15 K, x1 = 0.0499 | 1173.9
338.15 K, x1 = 0.0999 | 1161.4
338.15 K, x1 = 0.149 | 1148.9
338.15 K, x1 = 0.1997 | 1141.5
343.15 K, x1 = 0.0999 | 1158.5
343.15 K, x1 = 0.149 | 1146
348.15 K, x1 = 0.0499 | 1168.2
348.15 K, x1 = 0.149 | 1143.2
353.15 K, x1 = 0.0999 | 1152.9
353.15 K, x1 = 0.149 | 1140.4

CC[NH3+].O=[N+]([O-])[O-] + CC[NH2+]CC.O=[N+]([O-])[O-]
x2 = 0
Settings | mass density [kg/m3]
293.15 K | 1215.6
298.15 K | 1212.4
303.15 K | 1209.3
308.15 K | 1206.2
313.15 K | 1203.1
318.15 K | 1200.1
328.15 K | 1194.1
338.15 K | 1188.2
348.15 K | 1182.4
353.15 K | 1179.5

CC[N+](CC)(CC)CC.O=[N+]([O-])[O-] + CC[NH3+].O=[N+]([O-])[O-]
mass density [kg/m3]
Settings | x1 = 0.0501 | x1 = 0.1 | x1 = 0.15 | x1 = 0.2001 | x1 = 0.2567 | x1 = 0.2995 | x1 = 0.35
293.15 K | 1198.3 | 1184 | – | 1160.6 | 1150.1 | 1142.8 | 1135.9
298.15 K | 1195.3 | 1180.9 | 1168.8 | 1157.7 | 1147.2 | 1139.9 | 1133.1
303.15 K | – | 1178 | – | 1154.7 | 1144.3 | 1137 | –
308.15 K | 1189.2 | 1175 | 1162.9 | – | 1141.5 | 1134.2 | 1127.4
313.15 K | 1186.2 | – | 1160 | 1149 | 1138.7 | 1131.4 | 1124.6
318.15 K | 1183.3 | 1169.2 | 1157.2 | 1146.2 | 1135.9 | – | 1121.8
323.15 K | 1180.3 | 1166.3 | – | 1143.4 | 1133.1 | 1125.9 | 1119.1
328.15 K | 1177.4 | 1163.5 | 1151.5 | – | – | 1123.2 | –
333.15 K | 1174.6 | 1160.6 | – | 1137.9 | 1127.7 | 1120.5 | 1113.7
338.15 K | 1171.7 | 1157.8 | 1146 | 1135.2 | 1125 | 1117.8 | 1111
343.15 K | 1168.8 | 1155 | – | 1132.5 | 1122.3 | 1115.1 | 1108.4
348.15 K | 1166 | 1152.2 | 1140.5 | – | 1119.6 | 1112.5 | –
353.15 K | 1163.2 | – | 1137.8 | 1127.1 | 1117 | 1109.8 | –

CCC[NH3+].O=[N+]([O-])[O-] + CCCC[NH3+].O=[N+]([O-])[O-]
x1 = 0.5
Settings | mass density [kg/m3]
298.15 K | 1126.6
303.15 K | 1123.4
308.15 K | 1120.4
318.15 K | 1114.3
333.15 K | 1105.4
338.15 K | 1102.5
348.15 K | 1096.7
353.15 K | 1093.8

CC[NH3+].O=[N+]([O-])[O-] + CC[N+](CC)(CC)CC.O=[N+]([O-])[O-]
x2 = 0
Settings | mass density [kg/m3]
293.15 K | 1215.6
298.15 K | 1212.4
303.15 K | 1209.3
308.15 K | 1206.2
313.15 K | 1203.1
318.15 K | 1200.1
323.15 K | 1197.1
328.15 K | 1194.1
333.15 K | 1191.2
343.15 K | 1185.3
348.15 K | 1182.4
353.15 K | 1179.5

CCC[NH3+].O=[N+]([O-])[O-] + CC[NH3+].O=[N+]([O-])[O-]
x2 = 0.5
Settings | mass density [kg/m3]
298.15 K | 1178.5
308.15 K | 1172.4
313.15 K | 1169.3
323.15 K | 1163.4
328.15 K | 1160.4
333.15 K | 1157.5
338.15 K | 1154.6
343.15 K | 1151.7
348.15 K | 1148.8

CC[NH3+].O=[N+]([O-])[O-] + CC[NH+](CC)CC.O=[N+]([O-])[O-]
x2 = 0
Settings | mass density [kg/m3]
303.15 K | 1209.3
308.15 K | 1206.2
318.15 K | 1200.1
328.15 K | 1194.1
333.15 K | 1191.2
338.15 K | 1188.2
343.15 K | 1185.3
348.15 K | 1182.4
353.15 K | 1179.5

CCCC[NH3+].O=[N+]([O-])[O-] + CC[NH3+].O=[N+]([O-])[O-]
mass density [kg/m3]
Settings | x2 = 0.25 | x2 = 0.5 | x2 = 0.75
293.15 K | 1129.4 | 1154 | 1180.5
298.15 K | 1126.3 | 1150.9 | 1177.4
303.15 K | 1123.1 | 1147.8 | –
308.15 K | – | 1144.8 | 1171.2
313.15 K | 1117 | 1141.8 | 1168.2
318.15 K | 1113.9 | 1138.8 | 1165.2
323.15 K | – | 1135.9 | 1162.2
328.15 K | 1107.9 | 1132.9 | 1159.3
333.15 K | – | 1130 | 1156.3
338.15 K | – | 1127.1 | –
343.15 K | – | 1124.3 | 1150.6
348.15 K | 1096.2 | 1121.4 | 1147.7
353.15 K | – | – | 1144.8

CC[NH2+]CC.O=[N+]([O-])[O-] + CC[NH3+].O=[N+]([O-])[O-]
mass density [kg/m3]
Settings | x1 = 0.0499 | x1 = 0.0998 | x1 = 0.1499 | x1 = 0.1999 | x1 = 0.2501 | x1 = 0.2998 | x1 = 0.3501
293.15 K | 1206.2 | – | 1189.4 | 1182.1 | 1174 | 1169.1 | –
298.15 K | 1203.1 | 1195 | 1186.3 | 1179 | – | 1166 | 1157.9
303.15 K | 1200 | 1191.9 | 1183.2 | 1176 | 1167.8 | 1162.9 | 1154.8
308.15 K | – | 1188.8 | 1180.2 | 1172.9 | 1164.8 | 1159.9 | 1151.8
313.15 K | 1193.8 | 1185.8 | 1177.2 | – | 1161.8 | 1156.9 | –
318.15 K | 1190.8 | – | – | 1166.9 | 1158.8 | – | 1145.8
323.15 K | 1187.8 | 1179.8 | – | – | 1155.9 | 1151 | 1142.9
328.15 K | 1184.9 | – | 1168.3 | 1161.1 | 1152.9 | – | 1140
333.15 K | 1181.9 | 1174 | 1165.4 | 1158.2 | 1150 | 1145.2 | 1137.1
338.15 K | 1179 | 1171.1 | 1162.5 | 1155.3 | 1147.1 | – | 1134.2
343.15 K | – | 1168.2 | – | 1152.4 | 1144.3 | 1139.5 | 1131.3
348.15 K | – | 1165.3 | 1156.7 | 1149.6 | 1141.5 | 1136.6 | 1128.4
353.15 K | 1170.4 | – | – | – | 1138.6 | 1133.8 | –
